Source: publication PMC12136788
Some of the results follow.

B1: chr8:95500983:95500984:-_ENSG00000164944_ENST00000437199|hu_hu|hu_hu_hu_mus_True|58_108 (ssRNA)
RNA: GGGAGUUCUACAGUCCGACGAUCAGAAGGAUUUUUACGAGUAAAGGACCGUACAUGACGGCCUCUACCACUGCCUCCCACUAACAACUUUCCUCUCGAGCCUCCACUGCCGCUAUUUGUACUAGCCCAGGACGGUCCCAGGCCCAACAGAGGAUUGAGCAUCA
B2: chr16:75691255:75691256:+_ENSG00000166848_ENST00000300086|hu_hu|motif|central (ssRNA)
RNA: GGGAGUUCUACAGUCCGACGAUCAAAGUUAUAUUUAUUUUCAACAAUGAAAACAACACAACAAAGUGGAGUCAAUCCACGGAUUUUUUAAAUCUAACACAAUGCUUAGCACAAACAAUACUCAAUAAAUAACACAUUAACCAACAACAGAGGAUUGAGCAUCA
B3: chr17:73774127:73774128:-_ENSG00000132475_ENST00000254810|hu_mus|FALSE|FALSE (ssRNA)
RNA: GGGAGUUCUACAGUCCGACGAUCUGACAAGACUCCCCACCACUUGUGAAUGUAAAACAUUUAAUUUAAAAAUGUUGAACACUACAAUAUAUAAAAUAGCUAUUAUAAAUGCACAUAGUGUAUUCUAUAGCUGCCAGGUUUACUCAACAGAGGAUUGAGCAUCA
B4: chr14:89338683:89338684:+_ENSG00000165533_ENST00000346301|hu_hu|hu_hu_hu_mus_False|68_78 (ssRNA)
RNA: GGGAGUUCUACAGUCCGACGAUCGUGGUUGUUGUGGACCAGGGCCAGCCUGAAGCACUGAUGGGCCAAAUUUGUAUCUCCGAUUCCCACAGCUAUGUGCCCCAGGUUGUACCAGACAUCAGCUGCCUCUUCUUCAUUUUCAGCCAACAGAGGAUUGAGCAUCA
B5: chr16:94664741:94664742:+_ENSMUSG00000040785_ENSMUST00000117648|mus_hu|mus_mus_mus_hu_False|48_68 (ssRNA)
RNA: GGGAGUUCUACAGUCCGACGAUCUGGUACUGAUCUUGGUAGCUGAUAUUCAGGAGAAAGGCUGGCCAAAGGUGUGUAUAUGCUGGUGAACUGCGACAAACCUGGUAACACGUUUAUGUAUGCUGGCGGUGUCUGGGUGAUAUCCAACAGAGGAUUGAGCAUCA
B6: chr4:95202638:95202639:+_ENSG00000163104_ENST00000354268|hu_mus|FALSE|FALSE (ssRNA)
RNA: GGGAGUUCUACAGUCCGACGAUCUAAGAGAACCUCUAGUAUAUCCAGCAUCAUGGUAAACUGGCUGAAUAAUACAACUCUAUCACCCUUCUGUUUCAACUCAGACAAGAUGCAUCCUAAGGCUCGGAAUUUCCCAGAAUCUAACAACAGAGGAUUGAGCAUCA
B7: chr17:65930154:65930155:-_ENSMUSG00000024091_ENSMUST00000024897|mus_mus|FALSE|FALSE (ssRNA)
RNA: GGGAGUUCUACAGUCCGACGAUCGGUGACAUUAUCUCUGAAGGACACGGCUGAGGUGGAUCCAGGUUUAUCCGAAUGUGCUACCUUUCUGAGCCUUAGGCCUUCAUCUCUCAGGUGUCGGUUUUCUUCUGAGAGCUUCAUCAUCAACAGAGGAUUGAGCAUCA
B8: chr14:90870812:90870813:+_ENSG00000198668_ENST00000553542|hu_hu|FALSE|FALSE (ssRNA)
RNA: GGGAGUUCUACAGUCCGACGAUCAUCAAUAUCUGCUUCUCUGAUCAUUUCAUCUACUUCUUCAUCUGUUAGUUUUUCUCCUAAGUUUGUCAUGACGUGACGUAGUUCUGCUGCACUGAUAUAACCAUUGCCAUCCUUGUCAAACAACAGAGGAUUGAGCAUCA
B9: chr1:130260868:130260869:-_ENSMUSG00000026356_ENSMUST00000027602|mus_mus|FALSE|FALSE (ssRNA)
RNA: GGGAGUUCUACAGUCCGACGAUCCGUGAGUCGUUUGGGGUCACGAGGGAACAUUGAGGUCUGGCGUACGUUAUGCAAUCCUAAAAACAGCAUCGUCACCCUUUCCAGCCCAAUGCCACCACCAGCAUGAGGAGGAGCUCCAAACAACAGAGGAUUGAGCAUCA
B10: chr18:67649703:67649704:-_ENSMUSG00000024533_ENSMUST00000115050|mus_hu|FALSE|FALSE (ssRNA)
RNA: GGGAGUUCUACAGUCCGACGAUCGUUACUGUAUUUUGAUGUGGUAUGAAAUGCAGCCGCCAUGCCUUUCAUGAAACGGUGCUAUCGUGGUGCUGACUACAGACAUGUCCUAUGGCUUUCAGGAAAUUAUUGUGCAUGUGCAUUCAACAGAGGAUUGAGCAUCA
B11: 93602292_93602412_3376_3pUTR_ENSMUSG00000058013_ENSMUST00000074733|mouse|control|control (ssRNA)
RNA: GGGAGUUCUACAGUCCGACGAUCGCAGAAGCAAUGCUUUUCUCUUUUUUAAGCUUCUUUAGGAUUCUCUUGACUUCUUAUUCCCUGACUCUCCAGAGGAUUUAUUUUACUGAGAACAAAAACUUAAUGCAAAAAAAAUUCAAUCAACAGAGGAUUGAGCAUCA
B12: chr7:107556079:107556080:+_ENSG00000091140_ENST00000440410|hu_mus|FALSE|FALSE (ssRNA)
RNA: GGGAGUUCUACAGUCCGACGAUCAUCAAUUUUUCCAUCUGACUUCUUGGUGGCACCAGUAACUUUUGUAUUCAGUUUAAACUUAAAUCCUUGCCUCUGAAGUAUACGUUGAAAAUUUUUUGAUAUCUCCAUGUCAAUUCCAAUCAACAGAGGAUUGAGCAUCA
B13: chr5:29673426:29673427:-_ENSMUSG00000010721_ENSMUST00000055195|mus_mus|FALSE|FALSE (ssRNA)
RNA: GGGAGUUCUACAGUCCGACGAUCAUUGCUGAUGAUUGAGAAGGGUAAAAGCAAAACCGCGCCAGCUGACACGGCUAGAGUGAAGGUGCUCAGAAACAACGAUAUCCUGUUGACUACAGCAUCCUCAUCUUCUUGUUCAUCGGACAACAGAGGAUUGAGCAUCA
B14: 65670484_65705406_359_5pUTR_ENSG00000169902_ENST00000304842|human|control|control (ssRNA)
RNA: GGGAGUUCUACAGUCCGACGAUCGUGGUUAUCUUGUUAUUAAACAGAUAUUUUGCUCAAAAUGAUUUUCGGAAAAUGUUCAGGCCAUGGACAGUCUACUUCAGAAAGAUAACCAACAUCUGGGAUGAGUGAGGAGCCGCCGCGCAACAGAGGAUUGAGCAUCA
B15: chr7:141450121:141450122:+_ENSG00000106028_ENST00000265304|hu_mus|hu_hu_hu_mus_True|38_88 (ssRNA)
RNA: GGGAGUUCUACAGUCCGACGAUCUCAUCCGUUCUAUGCCUUUUCUUUCGUCUGGUCACUCAGAAAUAUAAUGUUAUCAGCUAUGAUUGUUGUUGCUUGUCGCCUCACAUUGUUUUUAUCCAUGUACUCGCCAUAGUCCACUUUCAACAGAGGAUUGAGCAUCA
B16: 11082498_11082618_1206_CDS_ENSG00000120948_ENST00000240185|human|control|control (ssRNA)
RNA: GGGAGUUCUACAGUCCGACGAUCACCAAUUGCUGCACCAGAAUUAGAGCCACUAUAAGAGUUAUUUCCAGAACCGAAGGCCUGGUUUGGCUCCCUCUGCAUGUUGCCUUGGUUUUGGUUAUUACCCGAUGGGCCUGACUGGUUCAACAGAGGAUUGAGCAUCA
B17: chr4:25749455:25749456:-_ENSG00000091490_ENST00000264868|hu_hu|hu_hu_hu_mus_False|88_88 (ssRNA)
RNA: GGGAGUUCUACAGUCCGACGAUCGCACUAUGACCUCUAGAAAAAUCAUUCAAGGAGAAAAAUGUAAACCAAUGUACAAUGUUAUCGCCUUCCCUGUGUGUGGAGUGUUUGUCUCAAGGCUCCUUCUAGCUGCUGGAUUUGGGACAACAGAGGAUUGAGCAUCA
B18: chr10:112764417:112764418:+_ENSG00000108061_ENST00000369452|hu_mus|motif|central (ssRNA)
RNA: GGGAGUUCUACAGUCCGACGAUCAAUGGUGGAAAACUGAGAUGGACCUCCCACUGGAUAUAACUGGAAGCAAUUUCGGGCGGAGGUCAAGCUAUUCAAUUUUACAAGACUGGAUAAAAGACUCUCUGGUAGAGUAGAAAUGUUCAACAGAGGAUUGAGCAUCA
B19: chr2:187373433:187373434:+_ENSG00000065548_ENST00000337859|hu_hu|motif|central (ssRNA)
RNA: GGGAGUUCUACAGUCCGACGAUCUUUUCAGCGAUGUGUUUGGUGUCAUUCUUCUAAAUCAAGUGUAUUUAAUUCUUCUUCGGGUUCAUCCAAAUCCUCUCCAGUGAAAAGAUUUUCAUCAACAGGAACAGCAUCAAUGGCUCCCAACAGAGGAUUGAGCAUCA
B20: chr4:17845017:17845018:+_ENSG00000109805_ENST00000514176|hu_mus|hu_hu_hu_mus_False|8_88 (ssRNA)
RNA: GGGAGUUCUACAGUCCGACGAUCGCUCUCUUAACUUGUAUCUUCAUGAGAAAUUGGUGCAAGGUUAAGUUUACUUUUCUGUAGCGCAGCUGUUUUGGCUCGUCUGGGUAAUCUCAUCUUCAUUUCUAUUCUGGUUCCAUGAUCCAACAGAGGAUUGAGCAUCA
B21: chr11:43702452:43702453:+_ENSG00000149084_ENST00000278353|hu_mus|FALSE|FALSE (ssRNA)
RNA: GGGAGUUCUACAGUCCGACGAUCCAAGGCCUCGUUGCCCACGCACCACACCUGGAAGGCCCUGAAGAGCGAGUACGAGGCUCGCAGGGCCAGGUAGGCAAUGGUGCUCGCGCCCACCCAGUACAGGAAGCCGGCCGCCGGGGGCAACAGAGGAUUGAGCAUCA
B22: chr2:48026839:48026840:+_ENSG00000116062_ENST00000540021|hu_hu|hu_hu_hu_mus_False|8_18 (ssRNA)
RNA: GGGAGUUCUACAGUCCGACGAUCAUAGUGAGCCACUAGCGUCCUAAAUCUGGAACAGUGGCGGUCAUCCGAAAACUGGCCGAUGAAAAACUUGCCCAGUGAAGUGUCCACAAAGCACACACCAUAUGCACGAGUAUGACCAGACAACAGAGGAUUGAGCAUCA

These binders were tested against T1, UNK ZnF1-3 (human, UniProt Q9C0B0 31-174) (assay: nsRBNS (natural sequence RNA bind-n-seq); RBNS binding buffer (assumed for nsRBNS): 25 mM Tris pH 7.5, 150 mM KCl, 3 mM MgCl2, 0.01% Triton X-100, 500 ug/ml BSA, 20 U/ml SUPERase-In, 4 C; UNK is unkempt and MSI1 is Musashi-1; names of the RNAs are library labels; protein concentration not given here; high values mean tight binding).
T1 sequence: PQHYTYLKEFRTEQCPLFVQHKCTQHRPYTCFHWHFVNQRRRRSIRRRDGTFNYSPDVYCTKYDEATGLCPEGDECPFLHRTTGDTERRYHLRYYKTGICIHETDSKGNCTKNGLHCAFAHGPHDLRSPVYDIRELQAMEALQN
B1 was tested, and the binding signal was 0.931 enrichment R.
For B2, the binding signal was 1.22 enrichment R.
B3 gave a binding signal of 1.14 enrichment R.
In the case of B4, the binding signal is reported as 0.775 enrichment R.
Work on B5 yielded a binding signal of 1.03 enrichment R.
B6 gave a binding signal of 1.12 enrichment R.
With B7 the binding signal was 0.492 enrichment R.
Work on B8 yielded a binding signal of 0.451 enrichment R.
For B9, the binding signal was 1.17 enrichment R.
B10 showed a binding signal of 0.758 enrichment R.
B11 was tested, and the binding signal was 2.31 enrichment R.
With B12 the binding signal was 1.05 enrichment R.
B13 showed a binding signal of 0.672 enrichment R.
Work on B14 yielded a binding signal of 1.62 enrichment R.
B15 was tested, and the binding signal was 0.412 enrichment R.
B16 gave a binding signal of 0.932 enrichment R.
B17 gave a binding signal of 1.2 enrichment R.
B18 gave a binding signal of 1.34 enrichment R.
B19 showed a binding signal of 1.61 enrichment R.
In the case of B20, the binding signal is reported as 0.408 enrichment R.
For B21, the binding signal was 0.712 enrichment R.
Work on B22 yielded a binding signal of 1.09 enrichment R.
